# Measurements published in PMC6919601, “Identification of Plasmodium dipeptidyl aminopeptidase allosteric inhibitors by high throughput screening” (PLoS ONE, 2019).
# The whole screen tested about 110,000 compounds, of which about 230 (0.21%) showed an effect of 50% or more. Some of the results follow.
# Molecular target: DPAP1 (Plasmodium falciparum, UniProt Q8IIJ9)
# Assay: primary screen, percent inhibition; read by cleavage of a fluorogenic dipeptide substrate; higher = more effect of the substance
# Design: species or system P. falciparum D10 trophozoite lysates; single well
# 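Further: 30 min substrate incubation versus DMSO and 10 µM JCP410 controls.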
# DPAP1, sequence (Q8IIJ9 whole entry, looked up): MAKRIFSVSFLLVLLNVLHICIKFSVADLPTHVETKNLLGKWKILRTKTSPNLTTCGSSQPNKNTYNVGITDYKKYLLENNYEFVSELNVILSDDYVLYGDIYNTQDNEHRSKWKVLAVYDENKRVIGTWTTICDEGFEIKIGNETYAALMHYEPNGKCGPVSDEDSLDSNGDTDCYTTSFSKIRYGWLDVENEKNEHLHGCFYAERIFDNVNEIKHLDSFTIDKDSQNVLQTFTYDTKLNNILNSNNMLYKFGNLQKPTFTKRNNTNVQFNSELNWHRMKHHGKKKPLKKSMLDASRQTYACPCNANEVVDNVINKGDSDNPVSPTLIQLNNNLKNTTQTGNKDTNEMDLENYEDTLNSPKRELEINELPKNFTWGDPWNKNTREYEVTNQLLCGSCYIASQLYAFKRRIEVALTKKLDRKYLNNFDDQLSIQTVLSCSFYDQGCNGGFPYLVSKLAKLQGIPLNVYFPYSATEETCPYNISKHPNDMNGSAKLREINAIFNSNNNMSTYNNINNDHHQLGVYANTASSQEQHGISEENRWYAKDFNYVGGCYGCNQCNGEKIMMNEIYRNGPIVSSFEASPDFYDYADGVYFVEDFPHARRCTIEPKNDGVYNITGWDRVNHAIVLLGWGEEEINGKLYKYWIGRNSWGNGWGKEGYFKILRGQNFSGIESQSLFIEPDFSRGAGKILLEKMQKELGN
row,SMILES,% Inhibition @ 10 uM
1,Cc1sc2nc(SCC(=O)NCCCn3ccnc3)nc(O)c2c1C,1.39%
2,CC[C@H](NC(=O)[C@H](Cc1c(F)cccc1F)NC(=O)c1ccc(-c2ccccc2Cl)cc1)C(=O)C(=O)NC,-1.82%
3,Cc1cccc2c1cnn2C(=O)CCC(=O)NC1CCN(Cc2ccccc2)CC1,3.29%
4,O=C(COc1ccccc1)NCCN1CCCC1,-6.94%
5,CCCCC(=O)Nc1c(C(=O)OCC)sc2nc(C)c(Cl)c(C)c12,1.11%
6,Cc1cccc(OCC(=O)Nc2ccc(C)c(O)c2)c1,-6.39%
7,CC(=O)N(C)c1ccc(NC(=O)c2ccc(F)cc2)cc1,-3.09%
8,CCOc1ccc(-c2oc3ccc(C)cc3c(=O)c2O)cc1OC,1.74%
9,O=C1C2CCCN2C(=O)N1CCN1CCN(CCO)CC1 (stereo not drawn),-3.65%
10,O=C1NC(Nc2cccc(C(=O)O)c2)=N/C1=C\c1ccccc1,5.41%
11,CCCCNC(=O)C1(c2ccc(OC)cc2)CCOCC1,-3.04%
12,CCO/C(O)=C(\C#N)c1ccnc(O)n1,-2.21%
13,CCc1ccc(-n2nc(C)c3c(C(=O)OC)cc(C)nc32)cc1,-4.25%
14,CCC(=O)Nc1ccc(-c2cnc3ccccc3n2)cc1,-6.48%
15,CC(C)(C)NCC(O)CO/N=C(\c1ccccc1)c1ccccn1 (stereo not drawn),0.266%
16,Cc1ccccc1C(=O)c1cccn1CC(=O)NCc1cccnc1,4.33%
17,C#CCN1C(=O)SC(Cc2cc(OCC)c(OCC)cc2Br)C1=O (stereo not drawn),1.96%
18,Cc1cc(C)nc(NS(=O)(=O)c2ccc(NC(=O)c3ccoc3C)cc2)n1,-0.545%
19,Nc1c(C(=O)NCCc2ccccc2)nnn1-c1ccc(OC(F)(F)F)cc1,6.05%
20,CCOC(=O)c1sc2nc3n(c(=O)c2c1C)N=C(c1cc2cccc(OC)c2oc1=O)CS3,5.38%
21,CS(=O)(=O)N1CCN(c2nc(-c3ccccc3)cs2)CC1,-3.04%
22,Cc1cccc(C(=O)Nc2sc(C)c(C)c2C(N)=O)c1,-0.949%
23,Cc1cc(Cl)ccc1OCC(O)CN1CCN(Cc2ccc3c(c2)OCO3)CC1 (stereo not drawn),-9.77%
24,COc1ccc(CCNC(=O)C(C)n2nc(C)c3sc4ccccc4c3c2=O)c(OC)c1OC (stereo not drawn),-2.78%
25,CCOP(=O)(O)COc1ccccc1O,2.4%
26,COc1ccc(N(CC(=O)Nc2ccccc2)S(C)(=O)=O)c(OC)c1,3.53%

row,SMILES,% Inhibition @ 10 uM
1,Cc1cccc(CN2CCCC2CO)c1 (stereo not drawn),1.62%
2,Cc1c(C(=O)NC2CCCCCC2)sc2ncnc(N3CCCCC3C)c12 (stereo not drawn),-2.87%
3,O=C(CN1C(=O)S/C(=C/c2ccc(N3CCOCC3)cc2)C1=O)N1CCOCC1,-2.94%
4,Cc1cc(C)c(S(=O)(=O)N(C)CC(=O)Nc2ccc(S(N)(=O)=O)cc2)c(C)c1,-4.43%
5,CC(C)c1ccc(C2C(C(=O)c3cccs3)=C(O)C(=O)N2CCCN2CCOCC2)cc1 (stereo not drawn),1.17%
6,Cc1ccc2oc(=O)c3cc(C(=O)NCCc4ccc(S(N)(=O)=O)cc4)sc3c2c1,-5.58%
7,Cc1ccc(CN2CCC(CNC(=O)c3nn(C)c4c3CS(=O)(=O)c3ccccc3-4)CC2)cc1,4.28%
8,Nc1nnc(SCc2nc(O)c3ccccc3n2)s1,-0.403%
9,COc1ccc(CN2CCN(Cc3cccc(OC)c3OC)CC2)cc1Br,10%
10,Brc1ccc(CNCCSc2nnnn2-c2ccccc2)cc1,-1.31%
11,COc1cc(CNc2nc[nH]n2)ccc1OCC(=O)NC(C)(C)C,0.686%
12,C=CCOc1c(Br)cc(CNc2ccc(C(=O)O)cc2)cc1OC,-1.61%
13,COc1cc(C(=O)Nc2c3c(nn2-c2cccc(C)c2C)CS(=O)(=O)C3)cc(OC)c1OC,-0.812%
14,O=c1nc2s/c(=C\c3ccccc3Br)c(=O)n2nc1-c1ccccc1,-7.39%
15,O=C(Nc1ccc(-c2ccc(Cl)cc2)cc1)c1ccc(Cl)s1,-0.233%
16,CC1CCCN(C2=C(Cl)C(=O)N(c3cccc(Cl)c3)C2=O)C1 (stereo not drawn),-4.28%
17,Cc1nnc(-c2ccccc2)o1,2.14%
18,Clc1ccc2nc(N3CCN(c4ccccn4)CC3)c3nncn3c2c1,-2.19%
19,CCOC(=O)N1CCC(NS(=O)(=O)c2c(C)nc3scc(C)n3c2=O)CC1,-8.17%
20,CC(C)c1ccc(NC(=O)c2cc([N+](=O)[O-])ccc2Cl)cc1,-7.57%
21,CC(C)c1ccc(NC(=O)c2ccc(Br)o2)cc1,2.65%
22,COC(=O)c1cc(C(C)C)[nH]n1,1.72%
23,CC(=O)NC1=NC(=O)/C(=C/c2cn(C)c3ccccc23)S1,0.812%
24,CC12CN3CC(C)(CN(C1)C31CCCCC1)C2O (stereo not drawn),-9.93%
25,CCn1c(C)nc2cc(Cl)c(Cl)cc21,1.44%
